Out of some 220,000 compounds screened, about 16,000 (7.3%) were called active. This list was built around the results that the source calls inconclusive (neither active nor inactive); the mix of calls is not that of the screen. Calls follow the shape of the dose curve; as a rule, active = well fitted inhibition curve with a large enough effect (not every such curve was filed as active); inconclusive = small, poorly fitted or top-dose-only effect, or another doubt; inactive = no such curve, though single readings can be large or run the other way. Potencies beside an inconclusive call are fits to weak or partial responses and may not hold up.
biological target: Aldehyde dehydrogenase 1A1 (Homo sapiens) (UniProt P00352); assay: qHTS Assay for Inhibitors of Aldehyde Dehydrogenase 1 (ALDH1A1); conditions: Purified ALDH1A1, NADH fluorescence, propionaldehyde substrate; series mostly up to 75.3 µM;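 as to activity, negative = inhibition: plate controls were no enzyme wells and a reference inhibitor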
Potency is read from the fitted curve at half-maximal effect; tags tell the direction and shape of the fitted curve.

Sequence of UniProt P00352 (P00352 whole entry, looked up): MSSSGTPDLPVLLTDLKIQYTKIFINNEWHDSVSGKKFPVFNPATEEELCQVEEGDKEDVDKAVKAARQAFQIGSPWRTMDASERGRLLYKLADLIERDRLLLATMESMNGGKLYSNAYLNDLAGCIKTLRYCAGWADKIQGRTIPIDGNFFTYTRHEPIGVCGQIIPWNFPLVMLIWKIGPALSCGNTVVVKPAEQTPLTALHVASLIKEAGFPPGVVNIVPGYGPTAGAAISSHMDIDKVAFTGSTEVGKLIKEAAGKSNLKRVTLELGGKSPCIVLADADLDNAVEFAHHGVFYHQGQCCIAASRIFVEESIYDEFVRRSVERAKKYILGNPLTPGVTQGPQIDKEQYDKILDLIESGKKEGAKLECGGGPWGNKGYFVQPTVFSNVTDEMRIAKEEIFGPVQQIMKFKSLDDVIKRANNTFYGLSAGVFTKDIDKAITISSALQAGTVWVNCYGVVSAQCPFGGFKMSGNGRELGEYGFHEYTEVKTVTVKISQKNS

Potency, inactive:
Cc1ccc(NC(=S)N(CCN(C)C)C(C)c2cccnc2)cc1 (stereo not drawn), O=C(N/C(=C/C=C/c1ccccc1)C(=O)N1CCOCC1)c1ccccc1Br, COc1ccccc1N1CCN(c2nc3ccccn3c(=O)c2C=O)CC1, Cc1c([N+](=O)[O-])cc(C(=O)N2CCOCC2)cc1[N+](=O)[O-], CCCCCN(C(=O)COC(=O)c1ccc(Br)o1)c1c(N)n(CCCC)c(=O)[nH]c1=O, COc1cc(OC)cc(C(=O)N2CCN(c3ncccn3)CC2)c1, CCc1cccc(NC(=O)NC(=O)Cn2nnc(C(=O)OC)c2C(=O)OC)c1, Cc1nn(CC(=O)Nc2sc3c(c2C#N)CCC(C(C)(C)C)C3)c(C)c1[N+](=O)[O-] (stereo not drawn), CCS(=O)(=O)n1nc(C(=O)N2CCOCC2)nc1N, Nc1ccnc(Oc2ccc(F)cc2)c1, CN(Cc1cccs1)C(=O)COc1ccc(-c2nnco2)cc1, Clc1ncnc2scc(-c3ccc(Br)cc3)c12, CC(C)(C)C(=O)CN1CCN(S(=O)(=O)c2ccc(F)cc2)CC1, CO[C@@H]1O[C@@H]2COC(c3ccccc3)O[C@@H]2[C@@H](OC)[C@@H]1O (stereo partly drawn), CCOc1c(Cl)cc(CNCC(O)c2ccccc2)cc1OC (stereo not drawn), CC(C)C[C@@H](CC(=O)N[C@@H](CCCN)CC(=O)N[C@@H]1CCCC[C@H]1C(=O)N[C@H](CC(=O)N[C@@H](CCC(=O)O)CC(=O)O)CC(C)C)NC(=O)[C@@H]1CCCC[C@H]1N, COc1ccc(S(N)(=O)=O)cc1C(N)=O, C=CCc1cccc2cc(C(=O)Nc3ccc(NC(C)=O)cc3)c(=O)oc12, COc1ccc(N2CCN(Cc3nc(N)nc(N4CCCc5ccccc54)n3)CC2)cc1, CC(=O)Oc1ccc(-c2cccc(C(=O)N(C)c3ccc(O)cc3)c2)cc1, O=C1CC(C(=O)O)S/C(=N\N=C\c2ccc(Br)cc2)N1 (stereo not drawn), Cc1ccnc2ccc(SC(F)(F)F)cc12

Potency, active:
CCOC(=O)c1ccc(NC(=S)NC(=O)COc2ccccc2)cc1 22.4 µM, N#CC1=C(SCC(N)=O)NC(=O)CC1c1ccccc1Cl (stereo not drawn) 20 µM, CC(=O)Nc1cccc(NC(=O)CSc2nnnn2C(C)C)c1 14.1 µM, O=C(NC(=S)Nc1ccc(S(=O)(=O)N2CCCCCC2)cc1)c1cccs1 12.6 µM, COc1ccc(C)cc1NC(=O)CN1CCN(S(=O)(=O)c2ccc(Br)cc2)CC1 0.158 µM, CN(C)N1C(N)=C(C#N)C(c2cccs2)C2=C1CC(C)(C)CC2=O (stereo not drawn) 10 µM, C=CCn1c(N)cc(=O)nc1SCC(=O)N(c1ccccc1)c1ccccc1 22.4 µM

Potency, inconclusive:
COc1ccc(C(=O)Nc2ccc3c(c2)OCCO3)cc1[N+](=O)[O-] 3.98 µM [inhibitor, single point], N#Cc1c(N)c(C#N)c(-c2ccc(O)cc2)c2c1CCCC2 31.6 µM [inhibitor, single point], O=[N+]([O-])c1cc(-c2cnc3ccccc3n2)ccc1Oc1ccc(Cl)cc1 39.8 µM [inhibitor, single point], NC(=S)N=Nc1c(O)[nH]c2ccc(F)cc12 25.1 µM [inhibitor, partial curve], O=C(CN1CCCCC1)Nc1cccc2c1OCO2 44.7 µM [inhibitor, single point], Cc1ccc(C(=O)Nc2ncc3c(n2)CC(c2ccco2)CC3=O)cc1 (stereo not drawn) 39.8 µM [inhibitor, single point], Cc1cc(C)nc(N(C#N)Cc2cccc3ccccc23)n1 17.8 µM [inhibitor, partial curve], CC(=O)c1c(C)[nH]c(C(=O)CSc2nc3ccccc3c(=O)n2CCCN2CCOCC2)c1C 44.7 µM [inhibitor, single point], CC1CN(S(=O)(=O)c2cccc(C(=O)Nc3ccc4c(c3)CCC4)c2)CC(C)O1 (stereo not drawn) 28.2 µM [inhibitor, partial curve], COc1ccc(NC(=S)N/N=C/c2cccn2Cc2ccc(F)cc2Cl)cc1 39.8 µM [inhibitor, single point], O=C(NC(=S)Nc1ccc(S(=O)(=O)Nc2ncccn2)cc1)c1ccc(Br)cc1 39.8 µM [inhibitor, single point], Fc1ccc(-c2cc(C(F)(F)F)n3ncnc3n2)cc1 35.5 µM [inhibitor, single point], CN(C)S(=O)(=O)c1ccc(C(=O)NCCSc2ccc(Br)cc2)cc1 39.8 µM [inhibitor, single point], CC(C)c1ccccc1OCC(=O)NCC(c1cccs1)N1CCOCC1 (stereo not drawn) 39.8 µM [inhibitor, single point], Cc1c(C#N)c2ncn(CC#N)c(=O)c2n1-c1ccccc1 39.8 µM [inhibitor, single point], CCOC(=O)c1c(-c2cccs2)csc1NC(=O)CC(C)C 35.5 µM [inhibitor, single point], Cc1ccc(S(=O)(=O)CCN2CCC(n3cccc3)CC2)cc1 39.8 µM [inhibitor, single point], COc1cc(CNCCc2ccccc2)cc(Cl)c1OCc1ccccc1 15.8 µM [inhibitor, partial curve], COC(=O)c1ccc2c(=O)n(CCCCCC(=O)NC(C)C)c(=O)[nH]c2c1 39.8 µM [inhibitor, single point], O=C1c2cccc3cccc(c23)C(=O)N1OS(=O)(=O)c1ccccc1 20 µM [inhibitor, partial curve], CC(=O)C(Sc1nc(NC(C)(C)C)nc(N(C)C)n1)C(C)=O 28.2 µM [inhibitor, partial curve], CC(C)c1ccc(NC(=S)NCCc2c[nH]c3ccccc23)cc1 39.8 µM [inhibitor, single point], COc1cccc(C(=O)Nc2ccc(-c3nnc(-c4ccco4)o3)cc2)c1 37.7 µM [inhibitor, single point], COc1ccc(S(=O)(=O)C(C#N)c2nc3ccccc3nc2N2CCCCC2)cc1 (stereo not drawn) 10 µM [inhibitor, partial curve], O=C(c1sc2ccccc2c1Cl)N(Cc1ccccc1)C1CCS(=O)(=O)C1 (stereo not drawn) 39.8 µM [inhibitor, single point], CCNc1nc(CN2CCOCC2)nc2sc3c(c12)CCC3 44.7 µM [inhibitor, single point], Fc1ccc(C2=CC(c3ccc(Br)o3)n3ncnc3N2)cc1 (stereo not drawn) 25.1 µM [inhibitor, partial curve], O=C(COC(=O)c1ccc([N+](=O)[O-])s1)Nc1ccccc1 39.8 µM [inhibitor, single point], Cc1ccc(C(=O)NC(=O)CSc2ncccc2C(=O)O)cc1 39.8 µM [inhibitor, single point], COc1ccc2c(CC(=O)Nc3ccc(OC)c(NS(=O)(=O)c4ccc(F)cc4)c3)coc2c1 11.2 µM [inhibitor, partial curve], N#Cc1c(-c2ccco2)cc(C2CC2)nc1SCC(=O)c1ccccc1 17.8 µM [inhibitor, partial curve], O=C1CC(c2cccc(Cl)c2)CC(O)=C1C=Nc1cccc(Cl)c1 (stereo not drawn) 31.6 µM [inhibitor, partial curve], Cc1ccccc1Nc1scc(-c2ccc(Br)cc2)[n+]1-c1ccccc1C 39.8 µM [inhibitor, single point], Cc1[nH]c2ccccc2c1C(=O)COC(=O)Cn1c(C)nc2ccccc21 28.2 µM [inhibitor, partial curve, poor fit], Nc1c(C(=O)Nc2ccccc2)sc2nc(-c3ccco3)ccc12 11.2 µM [inhibitor, partial curve], Fc1ccc(NC(=S)Nc2ccccc2OC(F)F)cc1Cl 28.2 µM [inhibitor, single point], O=C1CN(C(=O)CSc2nnc(C3CC3)n2-c2ccccc2)c2ccccc2N1 39.8 µM [inhibitor, single point], Cc1cc(/C=N/NC(=O)CC2(C)OCCO2)c(C)n1-c1ccc(Cl)c(Cl)c1 28.2 µM [inhibitor, single point], Cc1nc2ncnn2c(C)c1CCC(=O)N1CCCCC1 25.1 µM [inhibitor, single point], N#CC1=C(SCC(=O)Nc2ccccc2)NC(=O)CC1c1ccc(O)cc1 (stereo not drawn) 25.1 µM [inhibitor, partial curve], CCOC(=O)c1cc2c(=O)n3cc(C)ccc3nc2n(Cc2cccnc2)c1=N 11.2 µM [inhibitor, partial curve], CCOC(=O)C1=C(O)C(=O)N(Cc2cccnc2)C1c1ccc(C)cc1 (stereo not drawn) 25.1 µM [inhibitor, single point], Nc1nnc(Cc2ccc(Cl)cc2)s1 39.8 µM [inhibitor, single point]

activity, negative = inhibition, inactive:
CN(C)CCCNc1ncnc2nc[nH]c12 0.128% [at 13.5 µM]

— PubChem BioAssay AID1030 (National Center for Advancing Translational Sciences (NCATS), 2008)
